Data taken from PubChem BioAssay AID485294 (National Center for Advancing Translational Sciences (NCATS), 2010).
The campaign covered roughly 370,000 compounds. About 150 (0.041%) were called active. Inconclusive means that the source gave no clear call. Such entries were picked first, then a sample of the others. Calls follow the shape of the dose curve; as a rule, active = well fitted inhibition curve with a large enough effect; inconclusive = small, poorly fitted or top-dose-only effect; inactive = flat fitted curve, though single readings scatter. No potency is given beside an inconclusive call; the fits are too rough.

What follows are compounds tested against Beta-lactamase (Escherichia coli (strain K12)) (UniProt P00811) (assay: qHTS Inhibitors of AmpC Beta-Lactamase (assay with detergent)). Settings: AmpC hydrolysis of nitrocefin, absorbance 480 nm, 0.01% Triton; series mostly up to 114 µM.
UniProt P00811, sequence (P00811 whole entry, looked up): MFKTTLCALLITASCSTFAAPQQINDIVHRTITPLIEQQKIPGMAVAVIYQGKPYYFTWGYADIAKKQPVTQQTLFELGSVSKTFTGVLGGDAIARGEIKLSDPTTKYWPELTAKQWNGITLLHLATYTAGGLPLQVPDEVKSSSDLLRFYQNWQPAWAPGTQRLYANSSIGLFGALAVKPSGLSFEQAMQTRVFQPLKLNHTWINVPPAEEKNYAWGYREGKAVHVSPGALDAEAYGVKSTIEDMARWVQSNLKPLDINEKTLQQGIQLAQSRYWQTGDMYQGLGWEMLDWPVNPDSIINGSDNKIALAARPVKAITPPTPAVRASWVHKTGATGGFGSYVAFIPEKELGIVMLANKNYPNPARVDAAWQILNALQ
Summary of the method: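 20 mM phosphate pH 7.0 + 0.01% (detergent screen) or 0.0001% Triton X-100; 5.3 nM AmpC reagent; cpd preinc 15 min RT; nitrocefin (800 uM stock) to start; A480 q20 s × 4 min; Activity was normalised to no-enzyme and no-compound control wells.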
Also: nearly all actives have a fitted effect of over 25% in size.
Potency is read from the fitted curve at half-maximal effect; tags tell the direction and shape of the fitted curve.

Structure (SMILES)	Potency
Cc1ccc(S(=O)(=O)NC(Cc2ccccc2)C(=O)NN)cc1 (centres undefined)	inconclusive [inhibitor, full curve]
Cc1c(C(=O)N(C)C2CC(C)(C)NC(C)(C)C2)oc2c(F)cccc12	inconclusive [inhibitor, full curve]
O=C(/C=C/c1cccc([N+](=O)[O-])c1)OC1CCCCC1=O (centres undefined)	inconclusive [inhibitor, full curve, poor fit]
O=C(CN(C(=O)CCC(=O)Nc1nccs1)c1ccc(F)c(Cl)c1)NCC1CCCO1 (centres undefined)	inactive
CC(=O)Nc1sc(N/N=C/c2ccc(C)cc2)nc1-c1ccc(C)cc1	inactive
CCNC(=O)C1CCN(S(=O)(=O)c2ccc3c(c2)CCCN3C(C)=O)CC1	inactive
COc1ccc(C(=O)NCc2nc3ccccc3[nH]2)cc1OC	inconclusive [inhibitor, partial curve, poor fit]
Cn1c(SCc2nnc(-c3ccccc3Br)o2)nc2sc3c(c2c1=O)CCC3	inconclusive [inhibitor, full curve, poor fit]
O=C(COc1ccc(Br)cc1)N/N=C1/SCC(=O)N1Cc1ccccc1	inconclusive [inhibitor, full curve, poor fit]
Cc1cc(Nc2ccccc2C)n2nc(Cc3ccc(Cl)cc3)nc2n1	inactive
NS(=O)(=O)c1cccc(NC(=O)CCSc2ccc(Cl)cc2)c1	inconclusive [inhibitor, full curve, poor fit]
COCCCNC(=O)C1=CCN(S(=O)(=O)c2ccc(C)cc2)CC1	inconclusive [inhibitor, full curve, poor fit]
CCCNC(=O)C1CCN(S(=O)(=O)c2ccc3[nH]c(=O)ccc3c2)CC1	inconclusive [inhibitor, partial curve, poor fit]
O=C/C(=C\Nc1ccc(S(=O)(=O)CCO)cc1)c1nc2cc(Cl)ccc2o1	inconclusive [inhibitor, full curve]
CC/C=C\C/C=C\C/C=C\CCCCCCCC(=O)O	inconclusive [inhibitor, full curve, poor fit]
CCOc1ccc(N2C(=O)CC(NCCc3ccc(S(N)(=O)=O)cc3)C2=O)cc1 (centres undefined)	inactive
CCCCc1nnc(NC(=O)C2CCCO2)s1 (centres undefined)	inconclusive [inhibitor, full curve, poor fit]
Cc1cc(C(=O)CSc2nnc(-c3ccc(F)cc3)o2)c(C)n1CC1CCCO1 (centres undefined)	inconclusive [inhibitor, full curve, poor fit]
O=C(NCc1ccc2c(c1)CCN2C(=O)c1ccccc1)Nc1cccc(C(F)(F)F)c1	inactive
COc1ccccc1CNc1ccccc1F	inactive
Cc1cc(Cl)c2oc(C(=O)N3CCN(c4cccc(C)n4)CC3)c(C)c2c1	inactive
COCCNC(=O)c1cccc(OC2CCN(Cc3ccc(C(C)C)cc3)CC2)c1	inconclusive [inhibitor, full curve, poor fit]

Structure (SMILES)	Potency
C[C@@H](C(=O)O)[C@@H]1C[C@@]1(C)[C@@H](NC(=O)OCc1ccccc1)c1ccccc1	inconclusive [inhibitor, partial curve, poor fit]
O=C(CN1C(=O)CCC1=O)Nc1nc(-c2ccccn2)cs1	inconclusive [inhibitor, full curve, poor fit]
COc1ccc(NC(=O)C23CCC(C)(C(=O)O2)C3(C)C)cc1 (centres undefined)	inconclusive [inhibitor, full curve]
COc1ccc(-c2cn3nc(N4CCCC(C(=O)NCc5ccc(Cl)cc5)C4)sc3n2)cc1 (centres undefined)	inactive
O=C(c1cnn2cccnc12)N1CCN(c2ccccc2)CC1	inconclusive [inhibitor, full curve]
CCOc1ccc(C(=O)NCC(=O)NCC(c2cccs2)N2CCOCC2)cc1 (centres undefined)	inconclusive [inhibitor, full curve, poor fit]
Cc1c(C(=O)NCc2ccco2)cccc1[N+](=O)[O-]	inconclusive [inhibitor, full curve, poor fit]
CCOC(=O)N1CCN(CCC(=O)Nc2cc([N+](=O)[O-])ccc2OC)CC1	inconclusive [inhibitor, full curve]
CC(C)Oc1ccc(CNC(=O)CCCN2C(=O)C(c3ccccc3)Oc3cccnc32)cc1 (centres undefined)	inconclusive [inhibitor, full curve]
CC(Sc1n[nH]c(=O)n1Cc1ccccc1)C(=O)NCC1CCCO1 (centres undefined)	inconclusive [inhibitor, single point]
CCn1nnnc1SCC(=O)NCc1cccs1	inconclusive [inhibitor, full curve, poor fit]
Cc1c(NC(=O)COC(=O)Cc2ccc(F)cc2)c(=O)n(-c2ccccc2)n1C	inconclusive [inhibitor, full curve, poor fit]
CC1=C(C(=O)NCc2ccccc2F)C2(CCCCC2)OC1=O	inactive
CNC(=O)N1c2ccccc2C=Cc2ccccc21	inconclusive [inhibitor, full curve, poor fit]
O=C(CSc1ncc(-c2ccccc2)n1C1CCCC1)N1CCc2ccccc21	inconclusive [inhibitor, single point]
COc1ccc(-c2nc3sc(CCNC(=O)C(=O)Nc4cccc(NC(C)=O)c4)c(C)n3n2)cc1	inactive
CC(C)(C)N1CCC1C(N)=O (centres undefined)	inconclusive [inhibitor, single point]
CCc1cccc(C)c1NC(=O)c1ccccc1	inactive
Cc1csc2nc(=O)c3ccccc3n12	inactive
Nc1c(C(=O)c2ccc(Cl)cc2)oc2ccccc12	inconclusive [inhibitor, single point]
CNCCC1Sc2ccccc2Oc2ccccc21 (centres undefined)	inconclusive [inhibitor, single point]
CCc1ccc(C(=O)CSc2nc(N)cc(=O)[nH]2)cc1	inconclusive [inhibitor, partial curve, poor fit]
